Results from patent EP4736885A1, “ANTIBODY-DRUG CONJUGATE AND USE THEREOF” (priority 2023, dated 2025).

Experiments:
[1] = Hydrophobicity of antibody-drug conjugates by hydrophobic interaction chromatography; assay type: physicochemical; settings: TSKgel Butyl-NPR column, shorter time = more hydrophilic
Experimental: Hydrophobic interaction chromatography was used to compare the hydrophobicity of 43A-042, 43B-042, 43A-043, 43B-043, and 43A-DXd. Detection was performed on an e2695 high performance liquid chromatograph using a TSKgel Butyl-NPR chromatographic column (4.6 mm × 10 cm, Cat. No. 0042168/TOSOH). Mobile phase A was 1.0 M ammonium sulfate in 25 mM phosphate buffer, and mobile phase B was 25% isopropanol in 75% 25 mM phosphate buffer. The flow rate was 0.8 mL/min; the detection wavelength was 280 nm; the column temperature was 30 °C; the mobile phase gradient was as follows: 100%-0% A for 0-20 min, 0%-0% A for 20-23 min, 0%-100% A for 23-24 min, 100%-100% A for 24-28 min.

human B7H3 protein = molecular target: T1, human B7H3 protein (Homo sapiens, UniProt Q5ZPR3); assay: Antigen-binding activity (ELISA); settings: His-tagged human B7H3 protein coated at 1 µg/mL
T1 construct: His; purchased Beijing ACROBiosystems Co., Ltd
T1 sequence (Q5ZPR3 29-534): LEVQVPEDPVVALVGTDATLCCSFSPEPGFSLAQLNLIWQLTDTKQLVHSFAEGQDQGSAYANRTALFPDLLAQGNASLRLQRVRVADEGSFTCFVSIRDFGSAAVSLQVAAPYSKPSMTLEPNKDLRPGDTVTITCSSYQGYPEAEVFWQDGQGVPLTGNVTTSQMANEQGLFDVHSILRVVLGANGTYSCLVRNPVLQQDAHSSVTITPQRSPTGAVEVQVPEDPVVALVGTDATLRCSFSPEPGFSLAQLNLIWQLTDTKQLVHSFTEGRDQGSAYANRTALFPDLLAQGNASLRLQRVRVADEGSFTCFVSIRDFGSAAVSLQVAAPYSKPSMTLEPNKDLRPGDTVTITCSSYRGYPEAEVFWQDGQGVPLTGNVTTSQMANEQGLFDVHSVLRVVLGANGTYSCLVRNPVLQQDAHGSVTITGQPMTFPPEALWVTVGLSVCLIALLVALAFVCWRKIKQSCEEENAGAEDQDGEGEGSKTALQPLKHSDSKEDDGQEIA
Experimental: The His-tagged human B7H3 protein (purchased from Beijing ACROBiosystems Co., Ltd.) was diluted to 1 µg/mL with a coating solution and added to a microplate at 100 µL/well. The microplate was incubated at 4 °C overnight. Then, a blocking solution was added at 100 µL/well to the microplate containing the coating solution. The plate was shaken at room temperature for 2 h and then washed 3 times with a washing buffer. Samples and reference standards were subjected to gradient dilution and then added at 100 µL/well. The plate was shaken at room temperature for 2 h and washed 4 times with the washing buffer. An enzyme-labeled antibody was added. Goat anti-human IgG-HRP was diluted with the sample diluent and then added at 100 µL/well. The plate was shaken at room temperature for 1 h and washed 4 times with the washing buffer. A substrate solution (freshly prepared TMB substrate solution) was added at 100 µL/reaction well for color development. The reaction proceeded at room temperature for 5-10 min. Then, a terminating solution was added at 100 µL/well, and the mixture was gently and well mixed to stop the reaction. The absorbance was measured using a microplate reader at wavelengths of 450 nm/650 nm. Plotting was then performed using four-parameter fitting in software, where the C value in the model represents the half-maximal effective concentration EC50. Using the 43A and 43B antibodies as reference standards, the binding activities of the corresponding antibody-drug conjugates were determined. […] Table 3. Summary of binding activity to human B7H3 protein

[2] = test system: human melanoma A375 cells; assay: In vitro growth inhibition (resazurin), Example 25; assay type: cell-based; settings: A375, 168±8 h (Tables 5 and 6)
Experimental: (§1) The target cells were collected and resuspended to form a single-cell suspension, and the cell viability and cell count were determined by trypan blue staining. The cell density was adjusted to 1 × 10^5 cells/mL. The cell suspension was added to a 96-well black flat-bottom cell culture plate at 100 µL/well. 43A-DXd was used as a reference standard. The diluted test samples were added to the 96-well black flat-bottom cell culture plate (pre-seeded with cells) at 20 µL/well. […] A resazurin sodium solution (0.03%) was added at 20 µL/well. The plate was then incubated at 37 °C for 3-4 h. Fluorescence values were measured using a microplate reader at 550 nm/610 nm. Plotting was performed using Prism or similar plotting software, and then the half-maximal inhibitory concentration IC50 values of the reference standard and the test samples were calculated by fitting.

[3] = test system: human lung cancer Calu-6 cell xenograft tumors; assay: Anti-tumor experiment, Calu-6 xenograft, Example 26; assay type: in vivo, NOD/SCID mice; settings: 3.0 mg/kg, intravenous, single dose, day 25
Experimental: (§2) In this experiment, age-appropriate female NOD/SCID mice were selected to be inoculated with human lung cancer Calu-6 cells. When the tumor volume reached about 100-200 mm^3, 48 animals with good tumor growth were selected and evenly divided into 6 groups based on the tumor volume. Table 7. Animal grouping and dosing regimen
(§3) After grouping was completed, administration was performed, and the body weight of the mice was measured. The data were recorded. By measuring the tumor diameters at different time points after administration, the tumor growth was dynamically observed. The tumor volume was calculated using the following formula: Tumor volume (mm^3) = 1/2 × long diameter (mm) × ([shortdiameter(mm)])^2 [formula]
On day 25 after administration, the mice were euthanized by carbon dioxide asphyxiation, and then the tumors were excised and weighed.

[4] = test system: B7H3-positive human melanoma cell strain A375; assay: Cell binding activity by flow cytometry; assay type: cell-based; settings: binding to A375 cells, 4 °C 2 h, mean fluorescence intensity
Experimental: The affinity of the anti-B7H3 antibodies 43A and 43B was determined using the B7H3-positive human melanoma cell strain A375, with the M30 antibody used as a positive reference. Each sample was diluted to 15000 ng/mL with a PBS solution containing 2% BSA and then serially diluted across 11 gradients to achieve sample concentrations ranging from 0.014 ng/mL to 15000 ng/mL. A375 cells were taken, centrifuged at 500× g for 5 min, washed 3 times with the PBS solution containing 2% BSA, and incubated with the diluted samples with different concentrations at 4 °C for 2 h. After washing, the cells were incubated with a goat anti-human Alexa Fluor 488 fluorescent dye at 4 °C in the dark for 1 h. After further washing, the cells were resuspended, and the mean fluorescence intensity (MFI) of the cells was measured using an Attune NxT flow cytometer (Thermo Fisher Scientific, Inc.).

[5] = test system: human melanoma A375 cells; assay: In vitro growth inhibition (resazurin), Example 27; assay type: cell-based; settings: A375 (Table 9)
Experimental: as §1, with “µL/well.” for “µL/well. 43A-DXd was used as a reference standard.”, “the” for “the reference standard and the”

[6] = test system: human melanoma A375 cell xenograft tumors; assay: Anti-tumor experiment, A375 xenograft, Example 30; assay type: in vivo, NU/NU mice
Experimental: as §2, with “NU/NU” for “NOD/SCID”, “melanoma A375” for “lung cancer Calu-6”, “mm^3,” for “mm^3, 48”, “into” for “into 6”, “14.” for “7.”
as §3

[7] = test system: human liver cancer Hep3B xenograft tumors; assay: Anti-tumor experiment, Hep3B xenograft, Example 33; assay type: in vivo, NU/NU mice
Experimental: as §2, with “NU/NU” for “NOD/SCID”, “liver” for “lung”, “Hep3B” for “Calu-6”, “mm^3,” for “mm^3, 48”, “3” for “6”, “20.” for “7.”
as §3

[8] = 2.0 mg/kg, intravenous, single dose
[9] = baseline at grouping, 2.0 mg/kg group

B1: 43B-042 (conjugate)
heavy: QVQLVQSGAEVKKPGASVKVSCKASGYTFTDYFMNWVRQAPGQGLEWMGDVNPKTGSPSYNQKFKGRVTMTRDTSTSTVYMELSSLRSEDTAVYYCARRYGFLYSMDYWGQGTSVTVSSASTKGPSVFPLAPSSKSTSGGTAALGCLVKDYFPEPVTVSWNSGALTSGVHTFPAVLQSSGLYSLSSVVTVPSSSLGTQTYICNVNHKPSNTKVDKRVEPKSCDKTHTSPPCPAPEAAGGPSVFLFPPKPKDTLMISRTPEVTCVVVDVSHEDPEVKFNWYVDGVEVHNAKTKPREEQYNSTYRVVSVLTVLHQDWLNGKEYKCKVSNKALAASIEKTISKAKGQPREPQVYTLPPSREEMTKNQVSLTCLVKGFYPSDIAVEWESNGQPENNYKTTPPVLDSDGSFFLYSKLTVDKSRWQQGNVFSCSVMHEALHNHYTQKSLSLSPGK
light: DIQMTQSPSSLSASVGDRVTITCRASQDISNYLNWYQQKPGKAVKVLIYYTSRLHSGVPSRFSGSGSGTDFTFTISSLQPEDIATYYCQQGNTHPFTFGGGTKVEIKRTVAAPSVFIFPPSDEQLKSGTASVVCLLNNFYPREAKVQWKVDNALQSGNSQESVTEQDSKDSTYSLSSTLTLSKADYEKHKVYACEVTHQGLSSPVTKSFNRGEC
[1]
  retention time: 8.643 min
Human B7H3 protein
  EC50: 0.00116 µg/mL
[2]
  IC50: 0.01405 µg/mL
[3]
  Tumor growth inhibition rate (%): 91.6%
  Tumor volume on D25 (mm^3): 273.2±194.2 mm^3
  Tumor weight: 0.167 ± 0.000 g
  Tumor weight inhibition rate (%): 84.8%

B2: 43B-045-6 (conjugate)
heavy: B1 heavy
light: B1 light
[4]
  EC50: 0.03778 µg/mL
[5]
  IC50: 0.01706 µg/mL
[6]; [8]
  Mean tumor volume on D26 (mm^3): 144.6 ± 90.1 mm^3
[6]; [9]
  Mean tumor volume on D0 (mm^3): 128.9 ± 39.0 mm^3
[7]; [8]
  Mean tumor volume on D22 (mm^3): 917.5±405.8 mm^3
[7]; 2.0 mg/kg, intravenous, single dose, D22
  Tumor growth inhibition (TGI) rate (%): 66.5%
[7]; [9]
  Mean tumor volume on D0 (mm^3): 153.0±57.1 mm^3
